The values that follow are results of earlier work, collected in publication PMC10983004 (Journal of Medicinal Chemistry, 2024).

The data set concerns murine Tet1/2. Conditions: cited from earlier work.

Turning to `O=C(O)CC[C@@H](O)C(=O)O` [R-2HG, (2R)-hydroxyglutarate], the IC50 was 4 to 5 mM.

By IC50 is commonly meant the midpoint of a concentration-inhibition curve.
